Results from PubChem BioAssay AID651820 (National Center for Advancing Translational Sciences (NCATS), 2012).
Out of some 340,000 compounds screened, about 12,000 (3.5%) were called active. The inconclusive results got no clear call from the source; some entries with a clear call stand among them for comparison. Calls come from the whole dose curve; as a rule, active = well fitted inhibition curve with a large enough effect; inconclusive = small, poorly fitted or top-dose-only effect, or another doubt; inactive = no such curve, though single readings can be large or run the other way. No potency is given beside an inconclusive call; the fits are too rough.

Assay: qHTS Assay for Inhibitors of Hepatitis C Virus (HCV)
Conditions: Huh7.5.1 HCVcc-Cre (HCVcc is cell-culture hepatitis C virus) infection, luciferase reporter, 44 h; series mostly up to 41.8 µM
Outline: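 Compounds are dispensed onto cells plated 4 h earlier at 1,000 per well, with HCVcc-Cre virus (about 0.5 moi) added next. Following 44 h of culture, luminescent signal is measured for 15 sec after 15 min with substrate at room temperature.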
Potency is the fitted concentration of half-maximal effect; tags give direction and shape of the fitted curve.

| SMILES | Potency |
| --- | --- |
| Cc1cc(C)c(NC(=O)CNC(=O)CN(C)Cc2ccc(Br)s2)c(C)c1 | inconclusive [inhibitor, single point] |
| COc1ccccc1NC(=O)c1ccccc1Oc1ccccc1 | inconclusive [inhibitor, partial curve] |
| Cc1ccc(-c2nc3ccccc3s2)cc1S(=O)(=O)N1CCOCC1 | inconclusive [inhibitor, single point] |
| COc1ccc(C(=O)N2N=C(c3cccs3)CC2c2ccccc2O)cc1 (stereo not given) | inconclusive [inhibitor, single point] |
| Cc1ccc(/C=C/S(=O)(=O)NCc2ccc(F)cc2)cc1 | inactive |
| CCc1ccc(CN(C)C(C)C(=O)Nc2ccc(S(=O)(=O)N3CCCC3)cc2)cc1 (stereo not given) | inconclusive [inhibitor, single point] |
| Cc1ccc(C(=O)c2cc(C)sc2NC(=O)CN2CCN(C(=O)c3ccco3)CC2)cc1 | active: 12.6 µM |
| COc1ccc(-n2c(COc3ccccc3)n[nH]c2=S)cc1 | inactive |
| COc1ccc(CN(CC(=O)NCc2ccc3c(c2)OCO3)C(=O)c2csnn2)cc1 | inconclusive [inhibitor, single point] |
| O=C(CSCc1ccccc1Br)N/N=C/c1ccc2c(c1)OCO2 | inconclusive [inhibitor, single point] |
| Cc1c(/C(O)=C2\C(=O)C(=O)N(CCCN(C)C)C2c2ccco2)cnn1-c1ccccc1 (stereo not given) | inactive |
| CN(C)CC1Oc2ccccc2OC1(O)c1ccccc1 (stereo not given) | inconclusive [inhibitor, single point] |
| Cc1ccc2nc3c(cc(C(=O)NCCc4ccccc4)c(=N)n3CCN3CCOCC3)c(=O)n2c1 | inconclusive [inhibitor, single point] |
| CCCCNC(=S)N(C)/N=C/c1ccc2c(c1)OCO2 | inconclusive [inhibitor, single point] |
| CCOC(=O)NC(=O)/C(C=Nc1ccc(Cl)c(Cl)c1Cl)=C(\C)O | inactive |
| COc1cc(/C=N/Nc2nc(Nc3ccccc3)nc(N3CCOCC3)n2)ccc1OC(=O)c1ccco1 | inconclusive [inhibitor, partial curve] |
| O=C(O)c1cc(O)c2c(c1)[C@@H]([C@H]1c3cc(C(=O)O)cc(O)c3C(=O)c3c(O[C@@H]4O[C@H](CO)[C@@H](O)[C@H](O)[C@H]4O)cccc31)c1cccc(OC3O[C@H](CO)[C@@H](O)[C@H](O)[C@H]3O)c1C2=O (stereo not given in full) | inactive |
| CC(Oc1ccc(Cl)cc1)C(=O)N/N=C/c1ccsc1 (stereo not given) | inactive |
| COc1ccc([C@H]2CC(=O)C=C(c3c(OC)cccc3OC)C2)cc1 | inconclusive [inhibitor, partial curve] |
| Cc1ccccc1C(=O)NC(NC(=O)c1ccccc1C)c1cccc([N+](=O)[O-])c1 | inactive |
| O=C(NCCS(=O)(=O)N1CCN(c2cccc(Cl)c2)CC1)C1CC1 | inactive |
| Cn1c(-c2ccccc2)c(C(=O)CCl)c2ccccc21 | active: 5.62 µM |
| Cc1cc(N)n2nc(-c3ccccc3)cc2n1 | inactive |
| Cc1cc(NC(=O)c2ccc([N+](=O)[O-])o2)ccc1NC(=O)c1ccco1 | inconclusive [inhibitor, single point] |

| SMILES | Potency |
| --- | --- |
| CSc1ncc(CN2CCCCC2C(=O)Nc2ccc(Oc3ccccc3)nc2)cn1 (stereo not given) | inconclusive [inhibitor, single point] |
| Cc1cc2ccc(C)c(C)c2nc1SCC(=O)c1cccs1 | inconclusive [inhibitor, single point] |
| c1ccc(Cc2nnc3sc(-c4ccc5c(c4)OCO5)nn23)cc1 | inactive |
| CCN(CCCn1c(SCC#N)nc2ccccc2c1=O)c1ccccc1 | inconclusive [inhibitor, partial curve] |
| Cc1ccc(C)c(NC(=O)COc2cccc3c2CCN(Cc2ccccc2)C3=O)c1 | inconclusive [inhibitor, single point] |
| Cc1ccc(-c2nc(S(=O)(=O)c3ccc(C)cc3)c(N3CCOCC3)o2)cc1 | inactive |
| N=C(N)SCc1cn2ccccc2n1 | inactive |
| COCC(C)n1c(C)cc(C(=O)COC(=O)c2ccc(N3CCCC3=O)cc2)c1C (stereo not given) | inconclusive [inhibitor, partial curve] |
| O=C(CN1C(=O)S/C(=C\C=C\c2ccccc2)C1=O)Nc1cccc(O)c1 | inconclusive [inhibitor, single point] |
| CC(=O)N1N=C(c2cccc([N+](=O)[O-])c2)OC1(C)CC(=O)Nc1ccccc1 (stereo not given) | inconclusive [inhibitor, partial curve] |
| COc1ccccc1C1c2ccc3ccccc3c2Oc2ncn(CCCO)c(=N)c21 (stereo not given) | inconclusive [inhibitor, single point] |
| CC(C)(C)NC(=O)CCN(/N=C/c1ccncc1)C1=NS(=O)(=O)c2ccccc21 | inactive |
| O=C(NCc1cccnc1)c1ccccc1CCc1ccccc1 | inactive |
| Nc1nc(-c2cccc(Br)c2)cs1 | inconclusive [inhibitor, single point] |
| CCOC(=O)c1c(NC(=O)CN2CCN(c3ccc(Cl)cc3)CC2)sc(C)c1C | inactive |
| O=C(Nc1cccc(C(=O)N2CCOCC2)c1)C1CCCC1 | inactive |
| O=C(Nc1ccc(N2CCOCC2)c(Cl)c1)c1c(F)c(F)c(F)c(F)c1F | active: 8.91 µM |
| COC(=O)c1cc(OC)c(OC)cc1NC(=O)Nc1ccc(OC)cc1 | inactive |
| Cc1cccc(C)c1NC(=O)c1c(O)c2ccccc2[nH]c1=O | inconclusive [inhibitor, single point] |
| Cn1c(=O)c2c(nc(CN3CCN(C(=O)c4ccco4)CC3)n2Cc2cccc(Cl)c2)n(C)c1=O | inactive |
| COc1ccc(/C=N/OCC(=O)Nc2cc(C)on2)cc1OC | inactive |
| COc1ccc(C2/C(=C(/O)c3ccc4c(c3)CC(C)O4)C(=O)C(=O)N2CCCn2ccnc2)cc1OC (stereo not given) | inactive |
| Cc1c(Cl)cccc1NC(=S)N/N=C/c1ccccc1Cl | inconclusive [inhibitor, partial curve] |
| COc1cccc(CNC(=O)c2ccc(Cl)c(S(=O)(=O)N3CCOCC3)c2)c1 | inconclusive [inhibitor, partial curve] |

| SMILES | Potency |
| --- | --- |
| CCOC(=O)c1c(NC(=O)CN2C(=O)NC(C)(c3ccccc3)C2=O)sc(C)c1C (stereo not given) | inconclusive [inhibitor, partial curve] |
| COCCn1c(SCC(=O)c2[nH]c(C)c(C(C)=O)c2C)nc2ccccc2c1=O | inconclusive [inhibitor, partial curve] |
| O=C1/C(=C/c2cccnc2)Oc2cc(OS(=O)(=O)c3ccccc3)ccc21 | inconclusive [inhibitor, partial curve] |
| O=C(NCC(=O)N1CCN(C/C=C/c2ccccc2)CC1)c1ccc(OC(F)F)cc1 | inconclusive [inhibitor, partial curve] |
| COc1ccc(CN2C(=O)NC(=O)/C(=C\c3ccco3)C2=O)cc1 | inactive |
| Cc1ccc(C(=O)CC(=O)c2ccccc2C)c(O)c1 | inconclusive [inhibitor, partial curve, poor fit] |
| Oc1nc(Nc2ccccc2)sc1/C=C1\C=Nc2ccccc21 | inconclusive [inhibitor, partial curve, poor fit] |
| Fc1ccc(-c2nc3c(Cl)cc(C(F)(F)F)cn3c2Cl)cc1 | inconclusive [inhibitor, partial curve] |
| Cc1nc(C(C)N(C)Cc2c(C(=O)N3CCCCC3)nc3c(C)cccn23)c(C)s1 (stereo not given) | inactive |
| CCOC(=O)c1c(C)[nH]c(C(C)=NNC(=O)Cn2nc(C)cc2C)c1C | inconclusive [inhibitor, partial curve] |
| O=C(NCc1ccc2c(c1)OCO2)c1cccc([N+](=O)[O-])c1 | inactive |
| COc1cc2c(cc1OC)CN(c1nc(CN3CCCC3)nc3sc(C)c(C)c13)CC2 | inconclusive [inhibitor, full curve] |
| COc1ccc(S(=O)(=O)Nc2cc(SCC(=O)O)c(O)c3ccccc23)cc1 | inconclusive [inhibitor, single point] |
| C(#Cc1ccccc1)C[N+]1(CC#Cc2ccccc2)CCCCC1 | inconclusive [inhibitor, single point] |
| CC(=O)c1ccc(OCc2cc(C(=O)N3CCC(c4ccncc4)CC3)no2)cc1 | inconclusive [inhibitor, partial curve] |
| COc1ccc(C2C3=C(CC(C)(C)CC3=O)Oc3ncn(Cc4ccccc4)c(=N)c32)cc1 (stereo not given) | inconclusive [inhibitor, single point] |
| COc1ccc(Nc2nnc(SC(C(=O)Nc3ccc(OC)c(Cl)c3)c3ccccc3)s2)cc1 (stereo not given) | inconclusive [inhibitor, full curve] |
| CC(=O)c1c(C)[nH]c(C(=O)Nc2nc(-c3ccc(Cl)cc3)cs2)c1C | inconclusive [inhibitor, full curve, poor fit] |
| CC(=O)Nc1cccc(OCCCOc2cccc([N+](=O)[O-])c2)c1 | inconclusive [inhibitor, single point] |
| O=C(Nc1nnc(-c2ccccc2F)s1)Nc1ccccc1F | inactive |
| Cc1nn(C)c(C)c1NC(=O)CCCSc1nc(-c2ccco2)cc(C(F)(F)F)n1 | active: 2.24 µM |
| CCOc1ccc(C(=O)Nc2ccc3c(c2)OCCO3)cc1[N+](=O)[O-] | inconclusive [inhibitor, partial curve] |
